Laboratory results reported in paper PMC4336329 (PLoS ONE, 2015).
Among all 310,000 compounds or so, about 14,000 (4.5%) showed an effect of 50% or more. The effect is printed as a negative number. The list shows a part of the results.

molecular target: human ether-à-go-go-related gene (hERG) potassium channel (human, UniProt Q12809); assay: primary screen, population patch clamp on CHO cells stably expressing hERG
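Further: peak tail current of the secondary pulse compared with the same well before compound.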

Chain of human ether-à-go-go-related gene (hERG) potassium channel (Q12809 whole entry, looked up): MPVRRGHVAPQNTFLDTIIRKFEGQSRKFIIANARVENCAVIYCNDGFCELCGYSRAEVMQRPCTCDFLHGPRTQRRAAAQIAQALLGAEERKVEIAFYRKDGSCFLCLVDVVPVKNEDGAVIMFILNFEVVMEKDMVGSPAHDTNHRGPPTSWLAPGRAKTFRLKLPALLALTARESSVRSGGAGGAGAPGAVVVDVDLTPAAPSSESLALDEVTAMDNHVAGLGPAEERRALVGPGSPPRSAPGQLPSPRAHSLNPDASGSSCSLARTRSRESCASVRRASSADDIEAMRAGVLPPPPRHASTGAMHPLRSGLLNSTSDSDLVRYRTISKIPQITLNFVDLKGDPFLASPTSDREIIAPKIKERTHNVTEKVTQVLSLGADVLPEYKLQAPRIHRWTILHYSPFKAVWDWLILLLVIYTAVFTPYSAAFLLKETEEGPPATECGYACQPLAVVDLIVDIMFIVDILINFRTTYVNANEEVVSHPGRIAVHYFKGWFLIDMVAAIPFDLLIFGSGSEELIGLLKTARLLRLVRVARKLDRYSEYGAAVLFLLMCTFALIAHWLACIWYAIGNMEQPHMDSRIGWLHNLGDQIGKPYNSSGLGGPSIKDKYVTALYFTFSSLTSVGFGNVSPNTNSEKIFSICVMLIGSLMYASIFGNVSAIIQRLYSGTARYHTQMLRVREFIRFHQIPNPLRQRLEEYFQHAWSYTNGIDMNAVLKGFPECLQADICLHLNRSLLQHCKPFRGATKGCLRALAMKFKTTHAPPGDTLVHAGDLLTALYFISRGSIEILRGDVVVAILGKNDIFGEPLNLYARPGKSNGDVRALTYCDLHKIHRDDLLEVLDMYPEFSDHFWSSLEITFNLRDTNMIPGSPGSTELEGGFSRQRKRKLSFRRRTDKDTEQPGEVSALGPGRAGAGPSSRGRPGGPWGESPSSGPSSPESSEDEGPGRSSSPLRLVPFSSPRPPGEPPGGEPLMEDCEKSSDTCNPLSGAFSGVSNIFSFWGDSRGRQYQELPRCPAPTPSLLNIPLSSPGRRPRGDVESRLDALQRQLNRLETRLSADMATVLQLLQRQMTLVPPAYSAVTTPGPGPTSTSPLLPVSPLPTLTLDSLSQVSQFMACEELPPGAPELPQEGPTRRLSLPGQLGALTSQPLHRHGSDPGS

Going from `Clc1ccc(C2=C3CCCCn4c(-c5ccccc5)c[n+](c43)C2)cc1.[Br-]` to `N#CC(=C1CCCC1)c1nc(-c2ccc(Cl)cc2)cs1`, the “hERG current change (%, negative = inhibition) at 10uM” value rises from -82.1% to 13.5%.

Going from `CCCCc1ccc(-c2ccc(Br)cc2)nc1` to `CCC(=O)c1ccc(OCc2ccc(C(=O)OC)cc2)cc1`, the “hERG current change (%, negative = inhibition) at 10uM” value rises from -2.43% to -0.709%.

Going from `Br.CN(C)c1nc(=Nc2cccc(Cl)c2)ss1` to `O=C(NCc1cccs1)Nc1cccc(Cl)c1`, the “hERG current change (%, negative = inhibition) at 10uM” value rises from 3.71% to 6.97%.

Compared with `Cc1cc(C)n2nc(SCC(=O)NCc3ccco3)nc2n1`, `Cc1cccc(Nc2ccccc2C(=O)NCc2ccco2)c1C` is lower in “hERG current change (%, negative = inhibition) at 10uM” value: 9.53% for the first, 1.25% for the second.

Going from `NC(=O)c1ccc(SCC(=O)OCC(=O)NCc2cccs2)c([N+](=O)[O-])c1` to `CCN(CC(=O)NCc1cccs1)C(=O)c1ccc(OC)c(S(=O)(=O)N2CCOCC2)c1`, the “hERG current change (%, negative = inhibition) at 10uM” value rises from -7.36% to -6.53%.

Compared with `C=CCNc1sc(C(=O)c2cccs2)c(N)c1C#N`, `COC(=O)CSC1=C(C#N)C(c2ccccc2)CC(=O)N1` (stereo not shown) is higher in “hERG current change (%, negative = inhibition) at 10uM” value: 19.6% for the first, 19.9% for the second.

Going from `Oc1c(Cl)cc(Cl)cc1/C=N/c1nc(-c2ccc(Cl)cc2)cs1` to `COc1ccc(-c2csc(/C(C#N)=C\c3cccc([N+](=O)[O-])c3)n2)cc1`, the “hERG current change (%, negative = inhibition) at 10uM” value rises from 19.1% to 24%.

Compared with `COc1nc(Nc2cccc(C)c2)nc(N2CCCCC2)n1`, `CCOP(=O)(c1ccccc1)c1nc(-c2ccccc2Cl)oc1N1CCCCC1` (stereo not shown) is lower in “hERG current change (%, negative = inhibition) at 10uM” value: -9.03% for the first, -11.4% for the second.

First: O=C(CN1C(=O)c2ccc(Br)cc2C1=O)NCC1CCCO1 (stereo not shown)
Second: O=C1c2ccccc2C(=O)N1CC(O)CN1CCOCC1 (stereo not shown)
The “hERG current change (%, negative = inhibition) at 10uM” value of the first is higher: 1.18% for the first, 0.24% for the second.

First: CCOc1cc(C(=O)N(CC)CC(=O)Nc2ccc3c(c2)OCCO3)ccc1OC
Second: CCOc1ccc(NC(=O)c2ccc(OCC3CCCO3)cc2)cc1S(=O)(=O)N(CC)CC (stereo not shown)
The “hERG current change (%, negative = inhibition) at 10uM” value of the first is higher: 16.7% for the first, 12.4% for the second.

Going from `O=C(CSc1nccc(=O)[nH]1)NC1CCCC1` to `CCOc1ccc(N(CC(=O)NC2CCCC2)C(=O)CCC(=O)Nc2ccccn2)cc1`, the “hERG current change (%, negative = inhibition) at 10uM” value falls from 20.4% to -56.2%.

First: CCOC(=O)[C@H]1[C@H]2COc3ccc(Cl)cc3[C@@H]2N2C(=O)CN(Cc3ccc(Cl)cc3)C(=O)[C@@]12C
Second: NS(=O)(=O)c1ccc(CNC(=O)c2ccc3c(=O)n4c(nc3c2)CCC4)cc1
The “hERG current change (%, negative = inhibition) at 10uM” value of the first is lower: 2.8% for the first, 13.9% for the second.

Going from `Cc1cc(N/N=C/c2cccc(Br)c2)nc2ccccc12` to `COc1ccc(Br)cc1/C=C/C(=O)Nc1ccc2ccccc2c1`, the “hERG current change (%, negative = inhibition) at 10uM” value falls from 26.3% to 17.8%.

Compared with `O=C(O)C(C(O)c1ccc([N+](=O)[O-])cc1)[n+]1ccccc1.[Br-]` (stereo not shown), `CN(C)C(CNc1ccc([N+](=O)[O-])cc1C#N)c1ccccc1` (stereo not shown) is lower in “hERG current change (%, negative = inhibition) at 10uM” value: 21.1% for the first, -41.5% for the second.

Going from `COc1ccc(CSc2nnc(N)s2)cc1F` to `O=C(Nc1nnc(SCc2ccccn2)s1)C1CC(=O)N(c2ccccc2)C1` (stereo not shown), the “hERG current change (%, negative = inhibition) at 10uM” value falls from -4.82% to -6%.

Compared with `Cc1ccc(C(=O)N(CC(=O)Nc2sc(C)c(C)c2C(N)=O)C2CCCC2)cc1`, `COc1ccc(C(=O)CC(=O)C(=O)Nc2c(C)cccc2C)cc1` is lower in “hERG current change (%, negative = inhibition) at 10uM” value: -3.92% for the first, -7.64% for the second.

Going from `CCC(Cc1ccccc1)NC(=O)C1CCC(CNc2c(N3CCCC3)c(=O)c2=O)CC1` (stereo not shown) to `CC(C)c1cc(-c2cc(C(=O)NCc3ccccc3)on2)nc(NCC2CC2)n1`, the “hERG current change (%, negative = inhibition) at 10uM” value rises from 0.51% to 9.95%.

Compared with `CS(=O)(=O)N1CCC(C(=O)Nc2cc(Cl)ccc2Cl)CC1`, `COc1ccc(NC(=O)C2CCN(S(=O)(=O)c3cccnc3)CC2)cc1Cl` is lower in “hERG current change (%, negative = inhibition) at 10uM” value: 12.3% for the first, 8.87% for the second.

Compared with `Br.CCCCn1c(=N)n(CC(=O)c2ccco2)c2ccccc21`, `COc1ccccc1NC(=O)CC(c1ccc(F)cc1)c1ccco1` (stereo not shown) is higher in “hERG current change (%, negative = inhibition) at 10uM” value: -41.8% for the first, -19.4% for the second.

Compared with `Cc1c(NC(=S)NC(=O)c2ccccc2Br)c(=O)n(-c2ccccc2)n1C`, `Cc1ccc(NC2=C(NC(=O)c3ccccc3)C(=O)c3ccccc3C2=O)cc1Cl` is lower in “hERG current change (%, negative = inhibition) at 10uM” value: 16.8% for the first, -15.7% for the second.

First: CC1=CC(C)C2C(=O)N(CCCN(C)C)C(=O)C2C1 (stereo not shown)
Second: CN(C)c1nc(OCCOC(=O)COc2ccc(Cl)cc2Cl)nc(N(C)C)n1
The “hERG current change (%, negative = inhibition) at 10uM” value of the first is lower: -5.7% for the first, -0.207% for the second.

Compared with `CCCCC(=O)Nc1cccc(-c2nc3ncccc3o2)c1C`, `CCOC(=O)c1ccccc1NC(=O)CSc1nc(N)cc(N)n1` is lower in “hERG current change (%, negative = inhibition) at 10uM” value: -5.35% for the first, -15.4% for the second.

Going from `Cc1ccc(N2C(=O)CSC2c2cccnc2)c(Cl)c1` (stereo not shown) to `Cc1ccc(NNc2c(C)nc3ccccc3nc2=O)cc1`, the “hERG current change (%, negative = inhibition) at 10uM” value rises from 13.3% to 16%.

Going from `CCc1cccc(NC(=O)CN(c2ccc(OC)cc2)S(=O)(=O)c2c(C)n[nH]c2C)c1` to `COc1ccc(C(=O)CNc2cccc(F)c2)cc1`, the “hERG current change (%, negative = inhibition) at 10uM” value rises from -2.45% to 19.4%.

Compared with `O=C(c1cccc(C(F)(F)F)c1)N1C[C@H]2C[C@@H](C1)c1cccc(=O)n1C2`, `CC(=O)c1cccc(S(=O)(=O)N2CCCC(c3nc4c(nnn4Cc4cccc(Cl)c4)c(=O)[nH]3)C2)c1` (stereo not shown) is higher in “hERG current change (%, negative = inhibition) at 10uM” value: -13.7% for the first, 5.47% for the second.

Compared with `COCCNC(=O)C(C)OC(=O)C1=Cc2ccccc2OC1` (stereo not shown), `CC(OC(=O)Cn1[nH]c(=O)c2ccccc2c1=O)C(=O)Nc1ccc(F)cc1Cl` (stereo not shown) is higher in “hERG current change (%, negative = inhibition) at 10uM” value: 7.38% for the first, 12.8% for the second.

First: CC1(C)CC(=O)C(C(=S)Nc2ccccc2)=C(NC2CC(C)(C)NC(C)(C)C2)C1
Second: CCC(=O)Nc1cccc(-c2csc(-c3ccccc3)n2)c1
The “hERG current change (%, negative = inhibition) at 10uM” value of the first is lower: -8.36% for the first, -7.58% for the second.

First: COc1ccc(-n2nnnc2SCC(=O)c2cccc(OC)c2)cc1
Second: COc1ccc(NC(=O)c2cccc(NC(=O)c3ccco3)c2)c(OC)c1
The “hERG current change (%, negative = inhibition) at 10uM” value of the first is higher: 4.91% for the first, -1.61% for the second.

First: COCCNC(=O)/C(C#N)=C/c1c(N2CCN(C)CC2)nc2c(C)cccn2c1=O
Second: Cc1nc2scc(C)n2c(=O)c1S(=O)(=O)Nc1ccc(N2CCN(S(C)(=O)=O)CC2)cc1
The “hERG current change (%, negative = inhibition) at 10uM” value of the first is higher: 6.58% for the first, -3.78% for the second.

Compared with `CCOC(=O)c1oc2ccccc2c1CN1CCN(C(=O)c2ccccc2)CC1`, `CCOC(=O)c1cncn1[C@@H](C)c1ccccc1` is higher in “hERG current change (%, negative = inhibition) at 10uM” value: -41.7% for the first, -22% for the second.

Going from `COc1ccc(S(=O)(=O)N2CCN(C(=O)CN3C(=O)NC(C)(c4ccc5ccccc5c4)C3=O)CC2)cc1` (stereo not shown) to `CC(=O)Oc1ccc(C(=O)Nc2ccc(S(=O)(=O)N3CCOCC3)cc2)cc1`, the “hERG current change (%, negative = inhibition) at 10uM” value rises from -16% to 11.9%.

Compared with `O=Nc1c(O)c2ccccc2c2ccccc12`, `O=C(CNC(=O)Cc1ccccc1)N=Nc1c(O)[nH]c2ccc(Br)cc12` is higher in “hERG current change (%, negative = inhibition) at 10uM” value: 4.12% for the first, 24.7% for the second.

Compared with `Cc1nc2c(-c3ccc(F)cc3)cnn2c(N)c1-c1ccc(F)cc1`, `Cc1ccc2cc(C(c3nnnn3Cc3ccccc3)N3CCc4ccccc43)c(=O)[nH]c2c1C` (stereo not shown) is lower in “hERG current change (%, negative = inhibition) at 10uM” value: 23.3% for the first, -9.39% for the second.

Going from `CC(=O)N/N=C(\C)c1ccc(Br)cc1Br` to `CC1=NNC(=O)C1CCC(=O)N/N=C(\C)c1ccc(Cl)cc1` (stereo not shown), the “hERG current change (%, negative = inhibition) at 10uM” value falls from 31.3% to -3.31%.

Compared with `Cn1nc([N+](=O)[O-])nc1N1CCOCC1`, `CCN(CC)c1ccc(S(=O)(=O)N2CCOCC2)cc1NC(=O)C1CC1` is lower in “hERG current change (%, negative = inhibition) at 10uM” value: 23.7% for the first, -11.4% for the second.

Compared with `O=C(Nc1ccccc1C(F)(F)F)C1CCCC1`, `N/C(CC(=O)Nc1cccc(C(F)(F)F)c1)=N/O` is lower in “hERG current change (%, negative = inhibition) at 10uM” value: 14.4% for the first, -0.114% for the second.

Compared with `CN(Cc1nc(C(c2ccccc2)c2ccccc2)no1)CC1COCCO1` (stereo not shown), `Cc1ccccc1S(=O)(=O)NC1OC(=O)C(Oc2ccccc2)=C1Br` (stereo not shown) is higher in “hERG current change (%, negative = inhibition) at 10uM” value: -10.4% for the first, 1.3% for the second.

First: CCC(C)NC(=O)c1c(-c2cc(Cl)c(OC)c(Cl)c2)noc1C (stereo not shown)
Second: CCCCn1nnc(NC(=S)NC(=O)c2ccc(OCC)c([N+](=O)[O-])c2)n1
The “hERG current change (%, negative = inhibition) at 10uM” value of the first is higher: -8.28% for the first, -44.8% for the second.

Compared with `O=C(COC(=O)c1ccc2c(c1)OCCO2)Nc1cc(S(=O)(=O)N2CCOCC2)ccc1Cl`, `O=C(CSc1ncnc2ccccc12)Nc1cccc(S(=O)(=O)N2CCCC2)c1` is lower in “hERG current change (%, negative = inhibition) at 10uM” value: 13.9% for the first, 0.329% for the second.

First: CCN(Cc1ccccc1)S(=O)(=O)c1ccc(C(=O)Nc2nnc(-c3ccccc3OC)o2)cc1
Second: Cc1ccc(-n2nc3ccc(NC(=O)/C=C/c4ccco4)cc3n2)cc1C
The “hERG current change (%, negative = inhibition) at 10uM” value of the first is higher: 15% for the first, -2.2% for the second.

First: Cc1cc(C)n(-c2nnc(N3CCN(c4ccc(F)cc4)CC3)nn2)n1
Second: Fc1ccc(NC(=S)N2CCCCC2)cc1
The “hERG current change (%, negative = inhibition) at 10uM” value of the first is lower: 3.33% for the first, 12% for the second.

Compared with `Nc1cc(Cl)ccc1C(=O)OCC(=O)N1CCCC1`, `COC(=O)C(C(=O)Nc1ccc(OC)cc1)C1CCCCCC1` (stereo not shown) is lower in “hERG current change (%, negative = inhibition) at 10uM” value: 2.73% for the first, 0.653% for the second.

Going from `C=CCn1c(SCC(=O)C23CC4CC(CC(C4)C2)C3)nc(O)cc1=O` to `CC(C)OC(=O)CSc1nnc(-c2cnccn2)n1Cc1ccco1`, the “hERG current change (%, negative = inhibition) at 10uM” value falls from 10.5% to -16%.

First: O=C1CNC(=O)N1c1ccc(Cl)cc1
Second: Cc1ccc(-c2nc(C#N)c(N3CCC(C(N)=O)CC3)o2)cc1
The “hERG current change (%, negative = inhibition) at 10uM” value of the first is higher: 17% for the first, -23.7% for the second.
